Read counts are not given, so values of variants with three or more changes are uncertain.

Self-cleavage data for 34 variants are collected here from the RNAGym collection of RNA variant scans (doi:10.1093/nar/gkz1192).

B1: CPEB3 Ribozyme (parent)
chain: UAACAGGGGGCCACAGCAGAAGCGUUCACGUCGCAGCCCCUGUCAGAUUCUGGUGAAUCUGCGAAUUCUGCUGUAUAUCUC

The series covers variants of B1. Nature of the series: self-cleavage, relative activity (ratio to wild type); higher = more cleavage; in vitro, sequencing. In short, it runs like this: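 For each CPEB3 ribozyme variant, relative activity is its cleaved/total read fraction divided by the unmutated ribozyme's. Barcoded error-prone PCR libraries were transcribed by T7 RNA polymerase (5 hours, 37°C) and held in DNase I for 15 min before an EDTA stop, with cleavage occurring throughout. Template-switching reverse transcription and Illumina sequencing were used to read the RNAs. A 5-read minimum applied, and results are the mean of three batches.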
On to UAACAGGGGGGCACAGCAGAAGCGCUCACGUCGCAUCCCCUGUCAGAUCCUGGUGAAUCUGCGAGUCCUGCUGUAUUUCUC [C11G U25C G36U U49C A65G U67C A77U], for which the self-cleavage was found to be 0.06.

On to UAACAGGGGGGCACAGCAGAAGCGUUCACGUCGCAGCCCCUGUUAGAUUCUGGUGAAUCUGCGAGUUCUGCUGUAUAUCUC [C11G C44U A65G], for which the self-cleavage amounted to 0.08.

Take UAACAGGGGGGCACAGCAGAAGCGUUCACGUCGCAGCCCCCGUCAGAUUCUGGUGAAUCUGCGAAUUCUGCUGUAUAUCAC [C11G U41C U80A]: the self-cleavage came to 0.84.

Take UAACAGGGGGGCACAGCAGGAGCGUUCCCGUCGCAGCCCUUGUCAGAUUCUGGUGAAUCUGCGAAUCCUGCUGUAUAUCUC [C11G A20G A28C C40U U67C]: the self-cleavage came out at 0.18.

Regarding UAACAGGGGGGCACAGCAGAAGCGUUCACGCCGCUGCCCCUGUCAGAUUCUGGUGAAUCUGCGAGUUCUGCUGUAUAACUC [C11G U31C A35U A65G U78A], the self-cleavage was determined as 0.04.

For UAACAGGGGGGCACAGCAGGAGCGUUCACGUCGCAGCCCCUGUCAGAUUCUGGUGAAUCUGCGAAUUCUGCUGUAAAUCUC [C11G A20G U76A], the self-cleavage is 0.26.

As for UAACAGGGGGGCACAGCUGAAGCGUUCAUGUCGCAGCCCCUGUCAGAUUCUGGUGAGUCUGCGAAUUCUGCUGUAUAUCUC [C11G A18U C29U A57G], the self-cleavage is 0.07.

With UAACAGGGGGGCACAGCAGAAGCGUUCACGUCGCAGCCCCUGUCAGAUUCUGGUGAAUCUGCGAGUUCUGCUGUAUAUCAC [C11G A65G U80A], the self-cleavage is 0.09.

With UAACAGGGGGGCACAGCAGGAGCGUUCACGUCGCAGCCCCUGUCAGAUUCUGGUGAGUCCGCGAAUUCUGCUGCAUAUCUC [C11G A20G A57G U60C U74C], the self-cleavage came out at 0.42.

On to UAACAGGGGGGCACAGCAGAAGCGUUCACGUCACAGCCCCUGUCGGAUUCUGGUGAAUCUGCGAGUUCCGCUGCAUAUCUC [C11G G33A A45G A65G U69C U74C], for which the self-cleavage is 0.05.

Take UAACAGGGGGGCACAGCAGAACCGUUCACGUCGCAGCCCCUGCCAGAUCCUGGUGAAUCUGCGUAUCCUGCUGUAUAUCUC [C11G G22C U43C U49C A64U U67C]: the self-cleavage stood at 0.06.

As to UAACAGGGGGGCACAGCAGAGGCGUUCACGUCGCAGCCCCUGUCAGAUUCAGGUGAAUCUGCGAAUUCCCCUGUAUAUCUC [C11G A21G U51A U69C G70C], the self-cleavage was determined as 0.05.

Consider UAACAGGGGGGCACAGCAGAAGCGUCCACGUCGCAGCCCCUGUCAGAUUCUGGUUAAUCUGCGAAUUCUGCUGUAUAUCUC [C11G U26C G55U], for which the self-cleavage was found to be 0.08.

As for UAACAGGGGGGCACAGCAGAAGCGUUCACGUCGCAGCCCCAGUCAGAUCCUGGUGAAUCUGCGAAUCCUGCUGUAUAUCCC [C11G U41A U49C U67C U80C], the self-cleavage came out at 0.14.

For the variant UAACAGGGGGGCACAGCAGAAGCCUUCACGUCGCAGCCCCUGUCAGAUUCUGGUGAAUCCGCGAAUCCCGCUGUAUAUCUC [C11G G24C U60C U67C U69C], the self-cleavage is 0.16.

Take UAACAGGGGGGCAAAGCAAGAGCGUUAUCGUCGCAGCUCCUGUCAGAUUCUGGUGAAUCUGCGAAUUCUGCUGUAUAUCUC [C11G C14A G19A A20G C27A A28U C38U]: the self-cleavage worked out at 0.04.

Turning to UAACAGGGGGGCACAGCAGAAGCGUUCACGUCGCAGCCCCUGUCAGAUUCUGGUGUAUCUGCGAAUUCUGCCGUAUAUCUC [C11G A56U U72C], the self-cleavage was found to be 0.18.

Regarding UAACAGGGGGGCACAGCAGAAGCGUUCACGUCGCAGCCCCUGUCAGAUUCUGGUGGAUCUGCGAAAUCUGCUGUAUAUCUC [C11G A56G U66A], the self-cleavage was determined as 0.08.

Consider UAACAGGGGGGCACAGCAGAAGCGUUCUCGUCGCAGCCCCUGUCAGAUUCUGGUGAAUCUGCGAAUUCCGCUGUAUAUCUC [C11G A28U U69C], for which the self-cleavage was found to be 0.05.

On to UAACAGGGGGGCAAAGCAGAAGCGUUCGCGUCGCAGCCCCUGUCAGGUUCUGGUGAAUCUACGAAUUCUGCCGUAUAUCAC [C11G C14A A28G A47G G61A U72C U80A], for which the self-cleavage stood at 0.17.

Take UAACAGGGGGGCACAGCAGAAGCGUUCUCGUCGCUGCCCCUGUCUGAUACUGGUGAAUCUGCGAAUUCCGCUGUAUAUCUC [C11G A28U A35U A45U U49A U69C]: the self-cleavage was determined as 0.11.

Consider UAACAGGGGGGCACAGCAGAAGCGUAUACGCCGCAGCCCCUGUCAGAUUCUGGUGAACCUGCGAAUUCUGCUGUAUAUCUC [C11G U26A C27U U31C U58C], for which the self-cleavage worked out at 0.04.

Regarding UAACAGGGGGGCACAGCAGAAGCGCUCACGCCGCAGCCCCUGUCAGAUUCUGGUGAAUCUGCGAAUUCUGCUGUAUAUCUC [C11G U25C U31C], the self-cleavage is 0.1.

With UAACAGGGGGGCACAGCAGGGGCGUUCACGUCGCAGCCCCUGUCAGAUCCUGGUGAGUCUGCGAAUUCUGCUGUUUAUCUC [C11G A20G A21G U49C A57G A75U], the self-cleavage was determined as 0.04.

For the variant UAACAGGGGGGCACAGCAGGAGCGUUCACGUCGCAGCCCCUGUCAGAUUCUGGUGAAUCUGCGAAUCCUGCUGUAUAUCUC [C11G A20G U67C], the self-cleavage was found to be 0.34.

On to UAACAGGGGGGCACAGCAGUAGCGUUCACGUCGGAGCCCCCGUCAGAUUCUGGUAAAUCUGCGAAUUCUGCUGUAUAUCUC [C11G A20U C34G U41C G55A], for which the self-cleavage is 0.05.

In the case of UAACAGGGGGGCACAGCAGAAGCGCACACGUCGCAGCCCCUGACAGAUUCUGUUGAAUCUGCGGAUUCUGCUGUAUAUCUC [C11G U25C U26A U43A G53U A64G], the self-cleavage stood at 0.06.

UAACAGGGGGGCACAGCAGAAGCGUUCACGCCGCAGCCCCUGUCAGAUUCAGGUGUAUCUGCGAAUUCUGCUGUAUAUCUC [C11G U31C U51A A56U]: the self-cleavage turned out to be 0.09.

With UAACAGGGGGGCACAGCAGGAGCGUUCACGUCGCGGCCCCUGUCAGAUUCUGGUGAAUCUGCGAAUUCUGCUGUAUAUCCC [C11G A20G A35G U80C], the self-cleavage stood at 0.6.

Take UAACAGGGGGGCACAGCAGAAGCGUUCCCGUCGCAGCCCCUGUCAGAUCCUGGUGAAUCUGCGAAUUCUGCUGUAUAUCUC [C11G A28C U49C]: the self-cleavage was determined as 0.27.

In the case of UAACAGGGGGGCACAGCAGGAGCGUUCAUGUCGCAGCCCGUGUCAGAUUCUGGUGAAUCAGCGAACUCUGCUGCAUAUCUC [C11G A20G C29U C40G U60A U66C U74C], the self-cleavage stood at 0.05.

As to UAACAGGGGGGCACAGUAGAAGCGUUCACGUCGCAGCCCCUGUCAGAUUCUGGUGAAUCUGCGAAUUCUGCUGUGUAACUC [C11G C17U A75G U78A], the self-cleavage was 0.13.

With UAACAGGGGGGCACAGCAGAAGCGUUCACAUCGCAGCCCCUGUCAGAUUCUGGUGAAUCUGCGAAUUCUGCGGUAUAUCUC [C11G G30A U72G], the self-cleavage came out at 0.08.

Turning to UAACAGGGGGGCACAGCAGAAGCGCUCACGUCGCAGCCCCAGUCUGAUUCUGGUGAAUCUGCGAGUUCUGCAGUAUACCUC [C11G U25C U41A A45U A65G U72A U78C], the self-cleavage turned out to be 0.02.
